Measurements reported in PubChem BioAssay AID624296 (National Center for Advancing Translational Sciences (NCATS), 2012).
Among all 350,000 compounds or so, about 9,900 (2.8%) were called active. This list was built around the results that the source calls inconclusive (neither active nor inactive); the mix of calls is not that of the screen. Calls follow the shape of the dose curve; as a rule, active = well fitted activation curve with a large enough effect; inconclusive = small, poorly fitted or top-dose-only effect; inactive = no such curve, though single readings can be large or run the other way. No potency is given beside an inconclusive call; the fits are too rough.
Potency is read from the fitted curve at half-maximal effect; tags tell the direction and shape of the fitted curve.

Assay: A quantitative high throughput screen for small molecules that induce DNA re-replication in MCF 10a normal breast cells. Also: nearly all actives have a fitted effect of over 50% in size.
Details: MCF 10A DNA re-replication, Hoechst nuclear intensity, 48 h; series mostly up to 46.1 µM
For `CC(=O)Oc1ccc(-c2ccc(C(=O)OCC(=O)N(C)CC(=O)Nc3ccccc3Cl)cc2)cc1`, the Potency was inconclusive [activator, partial curve, poor fit]. With `COc1cccc(/C=N/NC(=O)c2ccc(=O)n(C)c2)c1O` the Potency was inconclusive [activator, single point]. For `CN(C)CCCNc1oc(-c2ccc(Cl)cc2)nc1S(=O)(=O)c1ccccc1`, the Potency was inconclusive [activator, partial curve, poor fit]. In the case of `O=C(Cc1ccccc1)NC(NC(=S)Nc1cc(Cl)ccc1Cl)C(Cl)(Cl)Cl` (stereo not drawn), the Potency is reported as inconclusive [activator, partial curve, poor fit]. With `CCn1c2ccccc2c2cc(NC(=O)C(C)Oc3ccccc3)ccc21` (stereo not drawn) the Potency was “inactive”. For `O=C1/C(=C/c2cccnc2)CCC/C1=C\c1cccnc1`, the Potency was active: 1.16 µM. In the case of `CCCCCSc1nc(N2CCOCC2)c2c(c1C#N)CC(C)(C)OC2`, the Potency is reported as inconclusive [activator, single point]. For `C=CCn1c(SCc2csc(C)n2)nc2sc3c(c2c1=O)CCC(C)C3` (stereo not drawn), the Potency was active: 20.6 µM. In the case of `Cc1ccc(C)c(NC(=O)CN(C)C(=O)c2ccccc2OCc2ccc(Cl)cc2)c1`, the Potency is reported as inconclusive [activator, full curve, poor fit]. For `COc1ccc2c(c1)C1OCCC1C(c1ccco1)N2` (stereo not drawn), the Potency was inconclusive [activator, single point]. For `O=C(Nc1ccc2c(c1)OCCO2)c1cccc2nc3ccccc3nc12`, the Potency was inconclusive [activator, partial curve]. For `C=C1C(=O)c2sccc2C(c2ccc(OC)c(OC)c2)C1COC(C)=O` (stereo not drawn), the Potency was “inactive”. With `CCOC(=O)c1cnc2c(c(C)nn2-c2ccc(C)cc2)c1Cl` the Potency was inconclusive [activator, partial curve, poor fit]. For `CCOC(=O)c1ccc(N=c2ssnc2Cl)cc1`, the Potency was inconclusive [activator, single point]. With `CCCCNC(=O)c1cc2c(=O)n3cccc(C)c3nc2n(CCN2CCOCC2)c1=N` the Potency was inconclusive [activator, single point]. With `NC(=S)N/N=C/c1ccc2cccc(OCc3ccccc3)c2n1` the Potency was inconclusive [activator, single point]. With `OC1(C2(O)CC(c3ccccc3)ON2)CCCCC1` (stereo not drawn) the Potency was inconclusive [activator, single point]. With `CCOC(=O)c1cccc(NC(=O)c2cc3sccc3n2C)c1` the Potency was inconclusive [activator, single point]. With `COc1cc(NC(=O)CSc2nc(C3CC3)nc3ccccc23)cc(OC)c1` the Potency was inconclusive [activator, single point]. With `COc1ccc(N2CCN(C(=O)Cc3nn(C)c(=O)c4ccccc34)CC2)cc1` the Potency was “inactive”. For `CCOC(=O)c1sc(-c2ccc(OC)cc2)cc1N`, the Potency was inconclusive [activator, full curve, poor fit]. For `N#CCSc1nnc(COc2cccc3ccccc23)n1-c1cccc(Cl)c1`, the Potency was inconclusive [activator, single point]. With `Cc1sc2nc(SCC(=O)c3cc(C)n(CC4CCCO4)c3C)n(C(C)C)c(=O)c2c1C` (stereo not drawn) the Potency was “inactive”. For `COCC1CCN(C(=O)C2CCC(=O)N(C3CCCCCC3)C2)CC1` (stereo not drawn), the Potency was “inactive”. In the case of `CCC(=O)OCCNc1cc(SCCC(=O)OC)c2nonc2c1[N+](=O)[O-]`, the Potency is reported as inconclusive [activator, single point]. In the case of `O=C(/C=C/c1cccc([N+](=O)[O-])c1)NC(=S)Nc1cccc(NC(=O)c2ccccc2Cl)c1`, the Potency is reported as “inactive”. With `Nc1nonc1-n1nnc(C(=O)N/N=C/c2ccc(OCc3ccccc3)cc2)c1CNc1ccccc1` the Potency was inconclusive [activator, partial curve, poor fit]. With `COc1ccc(/C=C2\SC(=S)N(CCCC(=O)N3CCOCC3)C2=O)cc1OC` the Potency was “inactive”. For `COc1ccc2[nH]c3ccc(OC)cc3c2c1`, the Potency was inconclusive [activator, single point]. For `CCOC(=O)Cc1csc(N/N=C/c2ccc(C(F)(F)F)cc2)n1`, the Potency was “inactive”. For `CCOC(=O)c1c(C)[nH]c(C(=O)OCC(=O)Nc2sccc2C(N)=O)c1C`, the Potency was active: 20.6 µM. With `Cc1ccc(S(=O)(=O)Nc2cccc3c2O[C@H](CN(C)Cc2ccccc2)[C@@H](C)CN([C@H](C)CO)C3=O)cc1` the Potency was “inactive”. For `Cc1ccc(N2CC(C(=O)Nc3cccc(C(=O)NC4CC4)c3)CC2=O)cc1` (stereo not drawn), the Potency was “inactive”. For `CCOC(=O)c1ccc(CC2S/C(=C(\C#N)C(C)=O)NC2=O)cc1` (stereo not drawn), the Potency was inconclusive [activator, single point]. In the case of `COc1ccc(NC(=O)CN(C)C(=O)c2oc3c(ccc4ccccc43)c2C)cc1`, the Potency is reported as inconclusive [activator, single point]. In the case of `COc1ccc(NC(=O)Cc2nc3ccccc3[nH]2)cc1`, the Potency is reported as inconclusive [activator, single point]. With `Cc1ccn(CCNC(=O)C2CCC(=O)N(Cc3ccc(Cl)cc3)C2)n1` (stereo not drawn) the Potency was “inactive”. With `COC(=O)c1ccc2[nH]c(C(C)(C)O)c(C)c2c1` the Potency was inconclusive [activator, full curve, poor fit]. For `COc1ccc(Nc2nnc(SCC(=O)/C=C3/N(C)c4ccccc4C3(C)C)s2)cc1`, the Potency was inconclusive [activator, partial curve]. In the case of `O=C(c1ccco1)N1CCC(n2nnc3ccccc32)CC1`, the Potency is reported as “inactive”. For `O=C(/C=C/c1ccccc1)c1ccc(NC2=NCCCS2)cc1`, the Potency was active: 18.4 µM. With `COc1ccc(-c2nn(-c3ccccc3)cc2C(=O)NC(=S)NNC(=O)c2ccncc2)cc1` the Potency was inconclusive [activator, full curve]. In the case of `CC(C)[C@H](NS(=O)(=O)c1ccc(Cl)cc1)C(=O)OCC(=O)c1c(N)n(C)c(=O)n(C)c1=O`, the Potency is reported as “inactive”. With `O=C(CSc1nnc(Cc2csc(Nc3cccc(Cl)c3)n2)o1)N1CCc2ccccc21` the Potency was inconclusive [activator, partial curve, poor fit]. For `Cc1ccc(/C=C2\SC(=S)N(CCCC(=O)N3CCOCC3)C2=O)cc1`, the Potency was inconclusive [activator, single point]. In the case of `Cc1ccc(Cl)cc1N1CCN(C(=O)C2CCN(c3nnc(-n4cccc4)s3)CC2)CC1`, the Potency is reported as inconclusive [activator, partial curve, poor fit]. With `N#CCSc1nnc(Cc2cccs2)n1C1CCCCC1` the Potency was “inactive”. In the case of `CNC(=S)N/N=C/c1cn(Cc2c(F)cccc2Cl)c2ccccc12`, the Potency is reported as “inactive”. For `O=C(c1ccccc1Cl)N1N=C(c2ccc(Br)cc2)CC1c1nc2ccccc2[nH]1` (stereo not drawn), the Potency was inconclusive [activator, partial curve, poor fit]. In the case of `COc1ccc(-c2cc(C(=O)Nc3ccc(C(N)=O)cc3)c3ccccc3n2)cc1`, the Potency is reported as inconclusive [activator, single point]. In the case of `Cc1n[nH]c(=S)n1/N=C/c1cccc(OCc2ccccc2)c1`, the Potency is reported as inconclusive [activator, partial curve, poor fit]. In the case of `CN(C(=O)CCS(=O)(=O)c1ccc2c(c1)oc(=O)n2C)C1CCCCC1`, the Potency is reported as “inactive”. For `CSc1nc(N)c(NC(=O)c2ccc(Br)o2)c(=O)[nH]1`, the Potency was inconclusive [activator, full curve, poor fit]. In the case of `N=c1oc2ccccc2cc1-c1nc(-c2ccc(Cl)cc2)cs1`, the Potency is reported as inconclusive [activator, partial curve, poor fit]. In the case of `O=C(Cn1cnc2cc([N+](=O)[O-])ccc2c1=O)Nc1cccc2ccccc12`, the Potency is reported as inconclusive [activator, single point]. In the case of `Nc1ncnc2c1ncn2C1C=C(CO)C(O)C1O` (stereo not drawn), the Potency is reported as inconclusive [activator, partial curve, poor fit]. For `O=C(c1oc2ccccc2c1CSCc1ccccc1)N1CCN(c2ncccn2)CC1`, the Potency was inconclusive [activator, single point]. In the case of `COCCNC(=O)/C(C#N)=C/c1ccc(C)o1`, the Potency is reported as “inactive”. For `Nc1nonc1-n1nnc(C(=O)N/N=C/c2cc(Br)ccc2O)c1CSC1=NCCS1`, the Potency was active: 10.3 µM. With `O=C(N/N=C/c1ccco1)c1cc(-c2ccccc2)n[nH]1` the Potency was “inactive”. For `CCCCOc1ccc(-c2nnc(N)s2)cc1`, the Potency was inconclusive [activator, single point]. With `Clc1ccc(C(c2nnnn2C2CCCCC2)N(Cc2cccnc2)Cc2ccco2)cc1` (stereo not drawn) the Potency was inconclusive [activator, full curve, poor fit]. With `COc1ccc(Cc2nnc(NC(=O)c3ccc(OC)c(OC)c3)s2)cc1` the Potency was active: 3.66 µM. In the case of `N#C/C(=C\c1ccc(Cl)s1)C(=O)N1CCN(c2ccccc2)CC1`, the Potency is reported as inconclusive [activator, partial curve, poor fit]. For `Cc1ccc(SCc2cc(=O)[nH]c(SCC(=O)Nc3cc(Cl)ccc3Cl)n2)cc1`, the Potency was inconclusive [activator, single point]. For `COc1ccccc1CNC(=O)CN1C(=O)NC(c2ccccc2)(c2ccccc2)C1=O`, the Potency was “inactive”. With `CCc1cccc(NC(=O)Cn2c(-c3ccccc3)cc(C(C)=O)c2C)c1` the Potency was inconclusive [activator, single point]. In the case of `COc1cc(/C=C/c2noc(-c3ccccc3O)n2)cc(OC)c1OC`, the Potency is reported as inconclusive [activator, full curve].
